The values that follow come from PMC9415896, “Total Synthesis of the Antimycobacterial Natural Product Chlorflavonin and Analogs via a Late-Stage Ruthenium(II)-Catalyzed ortho-C(sp^2)-H-Hydroxylation” (Pharmaceuticals, 2022).

How the values of the data set were obtained:
To investigate the protonation state of CF and BF in physiological media (pH = 7.4) and these compounds’ ability to form the proposed salt bridge with Lys197, the pKa values were determined by ^1H-NMR titration (see Supplementary Data File; Figures S1–S4). For determination of the pKa of the 5-hydroxy group, the shift of the singlet at 6.65 ppm, the triplet at 7.01 ppm for the 2′-hydroxyl group, and both double duplets at 7.42 and 7.59 ppm were used.
NMR experiments were performed at 298 K on a Bruker Avance III HD spectrometer operating at 600 MHz equipped with 5 mm triple resonance TCI (^1H, ^13C, ^15N) cryoprobes and shielded z-gradients. For the pKa value determination, 23 samples of 200 µM concentration of CF and BF were prepared with pH ranges from 2 to 13 (pH in 0.5 log unit steps) in 50 mM sodium phosphate, 100 mM sodium chloride, 10% (v/v) DMSO-d6. 1D ^1H-NMR experiments were performed using 128 or 256 scans for each sample, and the data were processed and analyzed by the TopSpin 3.2 software (TopSpin, v3.2, Bruker BioSpin GmbH, Rheinstetten, Germany). […] The pKa values were calculated using the chemical shifts of the protonated and unprotonated forms and their corresponding mole fraction values applying the Henderson–Hasselbalch equation as explained by Gift et al.. […]

Molecules are shown by their SMILES.

`COc1cc(O)c2c(=O)c(OC)c(-c3cccc(Br)c3O)oc2c1OC` [BF, bromflavonin]: the “pKa1 (2′-OH)” value turned out to be 6.74 ± 0.04 and the “pKa2 (5-OH)” value was 10.30 ± 0.04.
